These are yes or no findings as the source states them, for the method shown. In cells and extracts the contact can be indirect. Some results given as binding are weak or reduced against the parent protein; the word gives no strength.

Amino acid sequences for entries named in this document (tags omitted).
UniProt O75494: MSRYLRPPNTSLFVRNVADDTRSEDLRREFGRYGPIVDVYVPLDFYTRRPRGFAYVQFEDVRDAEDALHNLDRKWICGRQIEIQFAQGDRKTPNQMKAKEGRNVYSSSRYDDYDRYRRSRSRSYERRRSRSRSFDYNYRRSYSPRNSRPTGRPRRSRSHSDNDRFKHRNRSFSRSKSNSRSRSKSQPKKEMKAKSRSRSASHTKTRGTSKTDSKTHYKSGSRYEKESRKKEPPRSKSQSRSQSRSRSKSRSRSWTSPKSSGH
UniProt Q15717: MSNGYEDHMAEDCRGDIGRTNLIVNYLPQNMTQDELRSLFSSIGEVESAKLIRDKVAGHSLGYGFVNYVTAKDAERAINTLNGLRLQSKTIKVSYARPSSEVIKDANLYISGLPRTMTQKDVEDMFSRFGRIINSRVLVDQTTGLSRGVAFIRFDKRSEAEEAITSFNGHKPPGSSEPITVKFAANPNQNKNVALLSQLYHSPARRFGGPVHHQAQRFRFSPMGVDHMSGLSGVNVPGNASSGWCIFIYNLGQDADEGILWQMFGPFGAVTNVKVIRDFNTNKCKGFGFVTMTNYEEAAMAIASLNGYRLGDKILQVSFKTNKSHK
UniProt P61326: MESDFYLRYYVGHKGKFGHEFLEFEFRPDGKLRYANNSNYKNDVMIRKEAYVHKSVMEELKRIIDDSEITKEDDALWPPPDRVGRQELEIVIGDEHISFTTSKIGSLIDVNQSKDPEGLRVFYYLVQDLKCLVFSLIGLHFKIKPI
UniProt Q96A72: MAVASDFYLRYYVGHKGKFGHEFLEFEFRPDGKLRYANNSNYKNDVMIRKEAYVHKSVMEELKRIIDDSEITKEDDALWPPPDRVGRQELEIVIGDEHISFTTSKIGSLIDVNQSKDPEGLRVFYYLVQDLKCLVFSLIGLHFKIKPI
UniProt P11940: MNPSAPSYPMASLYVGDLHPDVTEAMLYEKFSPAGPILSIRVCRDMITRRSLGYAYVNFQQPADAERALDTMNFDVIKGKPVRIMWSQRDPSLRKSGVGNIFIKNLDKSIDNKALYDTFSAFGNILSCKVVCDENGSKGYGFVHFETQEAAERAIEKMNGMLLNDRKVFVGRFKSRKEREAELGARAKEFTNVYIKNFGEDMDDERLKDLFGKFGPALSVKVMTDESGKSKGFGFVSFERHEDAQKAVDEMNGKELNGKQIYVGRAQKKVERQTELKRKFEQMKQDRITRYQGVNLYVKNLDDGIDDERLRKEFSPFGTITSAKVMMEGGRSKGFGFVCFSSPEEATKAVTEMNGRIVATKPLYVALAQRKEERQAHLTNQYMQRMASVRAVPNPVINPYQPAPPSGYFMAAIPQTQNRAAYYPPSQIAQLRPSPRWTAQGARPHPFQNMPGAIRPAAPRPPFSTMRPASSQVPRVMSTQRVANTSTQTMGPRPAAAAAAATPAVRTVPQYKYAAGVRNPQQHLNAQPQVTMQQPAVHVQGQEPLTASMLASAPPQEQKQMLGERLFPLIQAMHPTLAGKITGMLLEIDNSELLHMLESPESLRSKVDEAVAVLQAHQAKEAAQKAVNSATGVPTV
UniProt Q9BY49: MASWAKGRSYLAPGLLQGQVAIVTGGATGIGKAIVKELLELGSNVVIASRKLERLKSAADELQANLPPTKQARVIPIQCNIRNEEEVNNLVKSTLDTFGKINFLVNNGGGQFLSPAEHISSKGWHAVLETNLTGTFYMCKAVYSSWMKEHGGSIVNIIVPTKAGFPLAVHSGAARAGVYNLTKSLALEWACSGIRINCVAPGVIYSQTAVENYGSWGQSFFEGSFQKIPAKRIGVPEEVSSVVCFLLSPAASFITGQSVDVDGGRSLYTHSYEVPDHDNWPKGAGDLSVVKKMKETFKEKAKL

For the experiment, the target named is Serine/arginine-rich splicing factor 10 (SRSF10) (human (endogenous in Hep3B and HCCLM3)) (UniProt O75494). Put plainly: co-IP; independent endogenous SRSF10 immunoprecipitation from Hep3B and HCCLM3 cells on Protein G Dynabeads; IP buffer 20 mM Tris pH 8, 10% glycerol, 150 mM NaCl, 0.1% NP-40, 0.1 mM EDTA; western blot.
ELAVL1 (from UniProt Q15717 1-326): the binding entry is recorded as “binds”.

Regarding MAGOH (from UniProt P61326 1-146), the binding entry is “binds”.

As for MAGOHB (from UniProt Q96A72 1-148), the binding result is given as “binds”.

As for PABPC1 (from UniProt P11940 1-636), the binding entry was “binds”.

On to PECR (from UniProt Q9BY49 1-303), for which the binding result is “no binding”.

The values above are taken from paper PMC8927159.
